Results reported in the supplement of paper PMC4967469.

Experiments:
Test in all cases: Viability of human cancer cell lines after 72 h of drug (GDSC screen)
Vinorelbine = compound: CCC1=C[C@@H]2CN(C1)Cc1c([nH]c3ccccc13)[C@@](C(=O)OC)(c1cc3c(cc1OC)N(C)[C@H]1[C@@](O)(C(=O)OC)[C@H](OC(C)=O)[C@]4(CC)C=CCN5CC[C@]31[C@@H]54)C2 [Vinorelbine]; details: top dose 0.064 µM; top dose inferred
Experimental: (§1)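 Human cancer cell lines in 384-well plates, medium with 10% serum, drug for 72 h over a 256-fold dose range (nine 2-fold or five 4-fold steps up to the top dose). Adherent lines were fixed and stained with the nucleic acid dye Syto60, suspension lines read with resazurin; signal relative to control wells, capped at 0 and 100%. One two-parameter sigmoid per drug and line, fitted in a mixed model over all curves with the slope shared within a line.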

AG-014699 = compound: CNCc1ccc(-c2[nH]c3cc(F)cc4c3c2CCNC4=O)cc1 [AG-014699]; details: top dose 5 µM; top dose inferred
Experimental: as §1

Gefitinib = compound: COc1cc2ncnc(Nc3ccc(F)c(Cl)c3)c2cc1OCCCN1CCOCC1 [Gefitinib]; details: top dose 0.5 µM
Experimental: as §1

NU-7441 = compound: O=c1cc(N2CCOCC2)oc2c(-c3cccc4c3sc3ccccc34)cccc12 [NU-7441]; details: top dose 2 µM; top dose inferred
Experimental: as §1

Erlotinib = compound: C#Cc1cccc(Nc2ncnc3cc(OCCOC)c(OCCOC)cc23)c1 [Erlotinib]; details: top dose 2 µM
Experimental: as §1

S-Trityl-L-cysteine = compound: N[C@@H](CSC(c1ccccc1)(c1ccccc1)c1ccccc1)C(=O)O [S-Trityl-L-cysteine]; details: top dose 5.12 µM; top dose inferred
Experimental: as §1

Phenformin = compound: N=C(N)NC(=N)NCCc1ccccc1 [Phenformin]; details: top dose 4000 µM; top dose inferred
Experimental: as §1

QL-XI-92 = compound: C=CC(=O)Nc1cc(NC(=O)c2ccc(C)c(NC(=O)c3ccno3)c2)cc(C(F)(F)F)c1 [QL-XI-92]; details: top dose 10.24 µM; top dose inferred
Experimental: as §1

XL-184 = compound: COc1cc2nccc(Oc3ccc(NC(=O)C4(C(=O)Nc5ccc(F)cc5)CC4)cc3)c2cc1OC [XL-184]; details: top dose 5.12 µM; top dose inferred
Experimental: as §1

WHI-P97 = compound: COc1cc2ncnc(Nc3cc(Br)c(O)c(Br)c3)c2cc1OC [WHI-P97]; details: top dose 10.24 µM; top dose inferred
Experimental: as §1

EHT 1864 = compound: O=c1cc(CN2CCOCC2)occ1OCCCCCSc1ccnc2cc(C(F)(F)F)ccc12 [EHT 1864]; details: top dose 10 µM; top dose inferred
Experimental: as §1

Cell Line | AUC (Vinorelbine) | IC50 (Vinorelbine) [µM] | AUC (AG-014699) | IC50 (AG-014699) [µM] | AUC (Gefitinib) | IC50 (Gefitinib) [µM] | AUC (NU-7441) | IC50 (NU-7441) [µM] | AUC (Erlotinib) | IC50 (Erlotinib) [µM] | AUC (S-Trityl-L-cysteine) | IC50 (S-Trityl-L-cysteine) [µM] | AUC (Phenformin) | IC50 (Phenformin) [µM] | AUC (QL-XI-92) | IC50 (QL-XI-92) [µM] | AUC (XL-184) | IC50 (XL-184) [µM] | AUC (WHI-P97) | IC50 (WHI-P97) [µM] | AUC (EHT 1864) | IC50 (EHT 1864) [µM]
OCI-M1 (acute myeloid leukaemia, suspension) | 0.759 | 0.0177 | 0.994 | > 5 | 0.994 | > 0.5 | 0.988 | > 2 | 0.995 | > 2 | 0.729 | 1.18 | 0.36 | 114 | 0.875 | 6.17 | 0.975 | > 5.12 | 0.966 | > 10.2 | 0.957 | > 10
OCUB-M (breast, adherent) | 0.421 | 0.0025 | 0.968 | > 5 | 0.978 | > 0.5 | 0.989 | > 2 | 0.99 | > 2 | 0.643 | 0.748 | 0.181 | 33.1 | 0.787 | 3.82 | 0.945 | > 5.12 | 0.976 | > 10.2 | 0.805 | 4.25
OPM-2 (myeloma, suspension) | 0.556 | 0.00552 | 0.994 | > 5 | 0.994 | > 0.5 | 0.994 | > 2 | 0.993 | > 2 | 0.781 | 1.73 | 0.874 | 2710 | 0.946 | > 10.2 | 0.936 | > 5.12 | 0.96 | > 10.2 | 0.93 | > 10
OS-RC-2 (kidney, adherent) | 0.783 | 0.0408 | 0.962 | > 5 | 0.882 | > 0.5 | 0.905 | > 2 | 0.716 | 0.681 | 0.89 | > 5.12 | 0.693 | 1120 | 0.948 | > 10.2 | 0.906 | > 5.12 | 0.969 | > 10.2 | 0.951 | > 10
P30-OHK (lymphoblastic leukaemia, suspension) | 0.569 | 0.00597 | 0.987 | > 5 | 0.99 | > 0.5 | 0.93 | > 2 | 0.991 | > 2 | 0.984 | > 5.12 | 0.255 | 57.7 | 0.815 | 4.49 | 0.817 | 2.28 | 0.93 | > 10.2 | 0.965 | > 10
PSN1 (pancreas, adherent) | 0.988 | > 0.064 | 0.964 | > 5 | 0.991 | > 0.5 | 0.984 | > 2 | 0.991 | > 2 | 0.736 | 1.32 | 0.466 | 205 | 0.911 | > 10.2 | 0.918 | > 5.12 | 0.982 | > 10.2 | 0.991 | > 10
RCC10RGB (kidney, adherent) | 0.963 | > 0.064 | 0.945 | > 5 | 0.959 | > 0.5 | 0.934 | > 2 | 0.87 | > 2 | 0.932 | > 5.12 | 0.919 | > 4000 | 0.955 | > 10.2 | 0.789 | > 5.12 | 0.919 | > 10.2 | 0.935 | > 10
RL (B-cell lymphoma, suspension) | 0.95 | > 0.064 | 0.988 | > 5 | 0.988 | > 0.5 | 0.99 | > 2 | 0.99 | > 2 | 0.99 | > 5.12 | 0.595 | 446 | 0.964 | > 10.2 | 0.791 | 2.09 | 0.987 | > 10.2 | 0.984 | > 10
RPMI-6666 (Hodgkin lymphoma, suspension) | 0.565 | 0.00623 | 0.944 | > 5 | 0.957 | > 0.5 | 0.951 | > 2 | 0.946 | > 2 | 0.633 | 0.806 | 0.816 | 2820 | 0.724 | 3.18 | 0.771 | 2.36 | 0.901 | > 10.2 | 0.972 | > 10
Raji (Burkitt lymphoma, suspension) | 0.854 | 0.0452 | 0.984 | > 5 | 0.969 | > 0.5 | 0.967 | > 2 | 0.99 | > 2 | 0.833 | 3.01 | 0.477 | 217 | 0.959 | > 10.2 | 0.984 | > 5.12 | 0.989 | > 10.2 | 0.963 | > 10
SK-LMS-1 (soft tissue, adherent) | 0.302 | 0.00115 | 0.977 | > 5 | 0.987 | > 0.5 | 0.918 | > 2 | 0.987 | > 2 | 0.803 | 2.4 | 0.444 | 177 | 0.915 | > 10.2 | 0.664 | 0.89 | 0.981 | > 10.2 | 0.98 | > 10
SK-MM-2 (myeloma, suspension) | 0.956 | > 0.064 | 0.987 | > 5 | 0.987 | > 0.5 | 0.984 | > 2 | 0.987 | > 2 | 0.899 | > 5.12 | 0.528 | 299 | 0.929 | > 10.2 | 0.879 | > 5.12 | 0.969 | > 10.2 | 0.987 | > 10

By IC50 is meant the dose at which the fit gives 50% viability; where the fit passes the top or lowest dose, that dose stands as a limit. The AUC spans the tested range (256-fold, ending at the top dose) of the same fit: 1 means no effect, lower means more sensitive. For part of these data: An inferred top dose was derived from the fitted curves, not read from the paper.
